The values that follow come from publication PMC4242493.

The list shows a part of the results. The list includes weakly bound sequences.

The target in the assay is MaxL homodimer (UniProt P61244). In words: universal protein-binding microarray (PBM). As to conditions: PBS-based mixture, 10 nM His-tagged protein dimer, 2% milk, 200 ng/uL BSA, 50 ng/uL salmon testes DNA, 0.02% TX-100; detection with Alexa 488 anti-His …; high values mean tight binding; most listed sequences are background and not binding sites; double strand, one strand shown.
Chain of UniProt P61244 (P61244 whole entry): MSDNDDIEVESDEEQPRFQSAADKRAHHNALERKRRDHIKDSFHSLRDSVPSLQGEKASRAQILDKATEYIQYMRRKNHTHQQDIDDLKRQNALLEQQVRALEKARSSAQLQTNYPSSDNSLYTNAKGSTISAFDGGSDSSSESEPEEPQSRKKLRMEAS
As to ACGCCTTA, the binding signal (normalized occupancy) is 0.077.

In the case of ACGGTTCA, the binding signal (normalized occupancy) came out at 0.0728.

As to CCCGGCCG, the binding signal (normalized occupancy) is 0.0667.

Turning to ATGTGCCG, the binding signal (normalized occupancy) was determined as 0.0876.

Turning to GGCGAAAC, the binding signal (normalized occupancy) stood at 0.0689.

For the sequence GGGCTACC, the binding signal (normalized occupancy) is 0.0716.

For CTGAGAGC, the binding signal (normalized occupancy) amounted to 0.0662.

Take ACGCCTAA: the binding signal (normalized occupancy) turned out to be 0.0786.

On to ACATGTCT, for which the binding signal (normalized occupancy) amounted to 0.0899.

TAAAGGCA: the binding signal (normalized occupancy) was 0.0784.

TAAGTGCA: the binding signal (normalized occupancy) worked out at 0.0778.

For the sequence ATACTCCG, the binding signal (normalized occupancy) came out at 0.0779.

Consider CAACGTGA, for which the binding signal (normalized occupancy) is 0.118.

Take TCGGGCAA: the binding signal (normalized occupancy) was found to be 0.0699.

As to ACAAAGCG, the binding signal (normalized occupancy) was 0.0689.

With ACTTTGTC, the binding signal (normalized occupancy) is 0.0738.

Regarding ATACCGCG, the binding signal (normalized occupancy) amounted to 0.0817.

Turning to CACCAGTC, the binding signal (normalized occupancy) turned out to be 0.0703.

In the case of CTATACGA, the binding signal (normalized occupancy) was determined as 0.0719.

Regarding CCCGCCCA, the binding signal (normalized occupancy) was determined as 0.0875.

Take ACACATGG: the binding signal (normalized occupancy) stood at 0.159.

Consider CATCGGCC, for which the binding signal (normalized occupancy) is 0.0695.

Consider AAGCCTAT, for which the binding signal (normalized occupancy) is 0.0749.

For the sequence ACCCACCT, the binding signal (normalized occupancy) was 0.0795.

Take GGCCCCAA: the binding signal (normalized occupancy) was 0.0712.

On to AGAAGTAT, for which the binding signal (normalized occupancy) was determined as 0.0738.

Regarding ACTCCGGG, the binding signal (normalized occupancy) was 0.072.

On to AACCAAAA, for which the binding signal (normalized occupancy) stood at 0.0776.

Consider GCTGGAGA, for which the binding signal (normalized occupancy) was 0.0725.

Turning to GAGTCATA, the binding signal (normalized occupancy) came to 0.0794.

Regarding AGTCAAAA, the binding signal (normalized occupancy) stood at 0.0706.

GATTCCGC: the binding signal (normalized occupancy) turned out to be 0.0686.

For AAACCAGA, the binding signal (normalized occupancy) stood at 0.0735.

Regarding ATGACGTC, the binding signal (normalized occupancy) stood at 0.0781.

Take AACATTTG: the binding signal (normalized occupancy) amounted to 0.0729.

CAAGCTAC: the binding signal (normalized occupancy) is 0.072.

On to GTGAGAGA, for which the binding signal (normalized occupancy) came out at 0.0828.

In the case of CGTGACTC, the binding signal (normalized occupancy) is 0.0784.

GACCCAAC: the binding signal (normalized occupancy) came out at 0.0757.

For ACCGACCA, the binding signal (normalized occupancy) stood at 0.0782.

Turning to TCACGGGA, the binding signal (normalized occupancy) came out at 0.0777.

For ATTTTAGC, the binding signal (normalized occupancy) turned out to be 0.0764.

Consider CTCCAAGC, for which the binding signal (normalized occupancy) turned out to be 0.0741.

As for AAGTATCC, the binding signal (normalized occupancy) was determined as 0.0755.

As to AGCGTCAT, the binding signal (normalized occupancy) was 0.0737.

For CAACTGTA, the binding signal (normalized occupancy) turned out to be 0.0722.

On to ATGTTCGG, for which the binding signal (normalized occupancy) is 0.0775.

For ATGGTCCG, the binding signal (normalized occupancy) turned out to be 0.0771.

Consider AGCTTCGG, for which the binding signal (normalized occupancy) is 0.0712.

Regarding CTTCGTTA, the binding signal (normalized occupancy) is 0.0702.

Consider ACCTTGCT, for which the binding signal (normalized occupancy) was 0.0757.

In the case of AGATCTAA, the binding signal (normalized occupancy) was 0.0787.

As for AGTCCACG, the binding signal (normalized occupancy) came to 0.087.

For the sequence GAGAACCA, the binding signal (normalized occupancy) came out at 0.0818.

As for AATATACA, the binding signal (normalized occupancy) stood at 0.0893.

For the sequence AGTCCGGG, the binding signal (normalized occupancy) stood at 0.0654.

CGTTAAGC: the binding signal (normalized occupancy) turned out to be 0.067.

For GATCAAGA, the binding signal (normalized occupancy) turned out to be 0.074.

Turning to GCCGGTAC, the binding signal (normalized occupancy) is 0.0732.

For the sequence ATCATGAT, the binding signal (normalized occupancy) is 0.0928.

On to ATTCTGGG, for which the binding signal (normalized occupancy) was found to be 0.0769.

On to CTCTTCAG, for which the binding signal (normalized occupancy) was found to be 0.0689.

In the case of CAGGGGGG, the binding signal (normalized occupancy) is 0.0807.

Regarding CATGTTGC, the binding signal (normalized occupancy) turned out to be 0.0999.

As for CCACTAAA, the binding signal (normalized occupancy) was determined as 0.0745.

Regarding CAATATTC, the binding signal (normalized occupancy) stood at 0.0792.

Turning to CAGACAGC, the binding signal (normalized occupancy) was found to be 0.0708.

As to CCTTTCCA, the binding signal (normalized occupancy) stood at 0.0814.

As for GTTTCCGA, the binding signal (normalized occupancy) amounted to 0.0706.

Take CTTCACGC: the binding signal (normalized occupancy) worked out at 0.0773.

CATTGCCC: the binding signal (normalized occupancy) came to 0.0797.

Turning to GGGAGTAC, the binding signal (normalized occupancy) turned out to be 0.0781.

Take CTGCGAGA: the binding signal (normalized occupancy) turned out to be 0.0669.

For the sequence GAGGGTAA, the binding signal (normalized occupancy) stood at 0.0789.

As to AGTGGCAG, the binding signal (normalized occupancy) turned out to be 0.0755.

In the case of CCAGAAGA, the binding signal (normalized occupancy) was found to be 0.0738.

Turning to ACCGATAT, the binding signal (normalized occupancy) came out at 0.0735.

As for CTCTCCCA, the binding signal (normalized occupancy) turned out to be 0.0731.

Take CAACCAGG: the binding signal (normalized occupancy) turned out to be 0.0675.

Take CAAAGCTC: the binding signal (normalized occupancy) stood at 0.0662.

CAAATGTA: the binding signal (normalized occupancy) came out at 0.0834.

Take GGTACCAA: the binding signal (normalized occupancy) is 0.0733.

For GTGGTTGA, the binding signal (normalized occupancy) is 0.0778.

In the case of GACCACAC, the binding signal (normalized occupancy) amounted to 0.0868.

For CGTTATAG, the binding signal (normalized occupancy) is 0.0847.

ATAGATCC: the binding signal (normalized occupancy) turned out to be 0.0731.

Consider AGAGTAAA, for which the binding signal (normalized occupancy) is 0.0718.

Take CCCGGATC: the binding signal (normalized occupancy) was 0.0672.

As for CTGTAAAC, the binding signal (normalized occupancy) is 0.0773.

Regarding ATATAACC, the binding signal (normalized occupancy) turned out to be 0.081.

For the sequence AGCGATCC, the binding signal (normalized occupancy) stood at 0.0723.

With GAGCAGCC, the binding signal (normalized occupancy) turned out to be 0.0693.

For GCTAAAAA, the binding signal (normalized occupancy) stood at 0.0753.

Regarding AAGACCGC, the binding signal (normalized occupancy) was 0.0664.

Turning to ATGCTTCC, the binding signal (normalized occupancy) was 0.086.

For the sequence ACGGTCCG, the binding signal (normalized occupancy) came to 0.0678.

For the sequence AAAACTGA, the binding signal (normalized occupancy) was 0.0695.

On to CGTCAGCA, for which the binding signal (normalized occupancy) is 0.0763.

In the case of CGTGTCTA, the binding signal (normalized occupancy) is 0.086.

Take CTAAGGCC: the binding signal (normalized occupancy) came out at 0.072.

In the case of GCATGAAC, the binding signal (normalized occupancy) was found to be 0.0831.

With ATCGCCTC, the binding signal (normalized occupancy) stood at 0.0738.

As to AATTCTCT, the binding signal (normalized occupancy) amounted to 0.0743.

For the sequence CCGCGGGA, the binding signal (normalized occupancy) turned out to be 0.068.

For TATGGGGA, the binding signal (normalized occupancy) amounted to 0.0827.

For the sequence CAGAGGGC, the binding signal (normalized occupancy) was 0.0689.

Consider GTGCGCAC, for which the binding signal (normalized occupancy) was found to be 0.0897.

As for GCTTTGAA, the binding signal (normalized occupancy) was determined as 0.0684.

Turning to AACGACGT, the binding signal (normalized occupancy) was determined as 0.0737.

For the sequence CCGACCAG, the binding signal (normalized occupancy) worked out at 0.0723.

For AGCTGTAC, the binding signal (normalized occupancy) turned out to be 0.0726.

Take GACTGTAA: the binding signal (normalized occupancy) stood at 0.0716.

Consider CATCATTC, for which the binding signal (normalized occupancy) worked out at 0.0839.

For TGATACCA, the binding signal (normalized occupancy) is 0.084.

On to GACAAACC, for which the binding signal (normalized occupancy) was 0.0712.

As for AGCCAATG, the binding signal (normalized occupancy) was 0.0715.

With CGATGGTC, the binding signal (normalized occupancy) worked out at 0.0723.

Turning to GCGCAGAC, the binding signal (normalized occupancy) came to 0.0676.

On to CCGAGGCC, for which the binding signal (normalized occupancy) turned out to be 0.0671.

Consider CATCCGGC, for which the binding signal (normalized occupancy) is 0.0735.

Turning to GTAACTAC, the binding signal (normalized occupancy) was 0.0818.

Take ATCCAGAG: the binding signal (normalized occupancy) was found to be 0.0719.

Turning to GTGACAGA, the binding signal (normalized occupancy) turned out to be 0.0813.

With GTGCACTA, the binding signal (normalized occupancy) was 0.0769.

As for AACGATGG, the binding signal (normalized occupancy) is 0.0797.

Regarding CCTGGAAA, the binding signal (normalized occupancy) was determined as 0.0671.

Turning to ATCGGGAG, the binding signal (normalized occupancy) is 0.0724.

With TATCAATA, the binding signal (normalized occupancy) amounted to 0.0789.

On to ATCAGTGC, for which the binding signal (normalized occupancy) came to 0.0758.

For the sequence ATGTTAAA, the binding signal (normalized occupancy) turned out to be 0.084.

For the sequence AGCCTTTG, the binding signal (normalized occupancy) came out at 0.0703.

Consider TTCGTAAA, for which the binding signal (normalized occupancy) was found to be 0.0736.

Regarding ATATGGTG, the binding signal (normalized occupancy) stood at 0.085.

As for ATAACATA, the binding signal (normalized occupancy) was found to be 0.0882.

Regarding AAATACCG, the binding signal (normalized occupancy) came out at 0.0727.

As to AAAGCAAA, the binding signal (normalized occupancy) came to 0.0703.

Regarding CATACAGC, the binding signal (normalized occupancy) is 0.0781.

As to TTAAGTAA, the binding signal (normalized occupancy) was 0.0799.

As for AAGGGTGA, the binding signal (normalized occupancy) is 0.0757.

Turning to CAACGGGC, the binding signal (normalized occupancy) turned out to be 0.0687.

For AATTGTTA, the binding signal (normalized occupancy) was 0.0728.

On to CTACCGCC, for which the binding signal (normalized occupancy) was 0.0715.

On to GACCGCTC, for which the binding signal (normalized occupancy) was found to be 0.0649.

Regarding GCTCTCAC, the binding signal (normalized occupancy) turned out to be 0.08.

As for AACCCTTA, the binding signal (normalized occupancy) was found to be 0.0789.

On to ACAGACTG, for which the binding signal (normalized occupancy) worked out at 0.0787.

As to AAAATGAA, the binding signal (normalized occupancy) was 0.0817.

As for AGATTTAT, the binding signal (normalized occupancy) was determined as 0.0758.

Take ACAATAAG: the binding signal (normalized occupancy) is 0.0733.

For CAGCGAGA, the binding signal (normalized occupancy) was 0.0735.

Consider TATAGTAA, for which the binding signal (normalized occupancy) was 0.0765.

On to TGGTGACA, for which the binding signal (normalized occupancy) was 0.0846.

CAGCTTGG: the binding signal (normalized occupancy) is 0.0714.

Take ATGCCCAT: the binding signal (normalized occupancy) amounted to 0.0847.

As to TGGACCCA, the binding signal (normalized occupancy) was 0.0803.

Take ACCCAAAC: the binding signal (normalized occupancy) was found to be 0.0726.

Take CGCAATTA: the binding signal (normalized occupancy) was 0.0738.

In the case of CTCGTAAG, the binding signal (normalized occupancy) came out at 0.0694.

On to GTCAAAGA, for which the binding signal (normalized occupancy) was determined as 0.0724.

As to CGGCCAAG, the binding signal (normalized occupancy) came to 0.0668.

Turning to GGAAGTGA, the binding signal (normalized occupancy) turned out to be 0.0792.

With GACTTTCC, the binding signal (normalized occupancy) was found to be 0.0818.

Take AGTCGAAG: the binding signal (normalized occupancy) is 0.0678.

Regarding AACGTCGC, the binding signal (normalized occupancy) amounted to 0.0703.

On to GAAGCCCA, for which the binding signal (normalized occupancy) worked out at 0.0698.

Consider ATTGATTA, for which the binding signal (normalized occupancy) was 0.0786.

Turning to AAATGACT, the binding signal (normalized occupancy) worked out at 0.07.

Turning to AAACATCT, the binding signal (normalized occupancy) worked out at 0.0733.

For ATATAAAG, the binding signal (normalized occupancy) worked out at 0.0807.

Regarding ATGAACCA, the binding signal (normalized occupancy) turned out to be 0.0801.

For the sequence ATTATGAC, the binding signal (normalized occupancy) was 0.0798.

As to AGCAGTTA, the binding signal (normalized occupancy) was found to be 0.0697.
